Measurements as given in article PMC9554868.
These are yes or no findings as the source states them, for the method shown. Binding seen in cells or lysates may run through a third protein. Some binding calls cover weakened binding; strength is not graded here. Tags and fused reporters may be left off the sequences shown.

Key:
Experiment in all cases: co-IP
[1] = biological target: RING finger protein 26 (RNF26), wild type, Myc-FLAG-tagged (UniProt Q9BY78)
[2] = biological target: EBOV nonstructural soluble GP (sGP) (Zaire ebolavirus (EBOV)) (UniProt P60170)
[3] = biological target: Zaire ebolavirus (EBOV) glycoprotein GP1,2 (Zaire ebolavirus (EBOV)) (UniProt Q05320)

Measured: binding

B1: calnexin (CANX), HA-tagged (protein, UniProt P27824 21-592)
chain: HDGHDDDVIDIEDDLDDVIEEVEDSKPDTTAPPSSPKVTYKAPVPTGEVYFADSFDRGTLSGWILSKAKKDDTDDEIAKYDGKWEVEEMKESKLPGDKGLVLMSRAKHHAISAKLNKPFLFDTKPLIVQYEVNFQNGIECGGAYVKLLSKTPELNLDQFHDKTPYTIMFGPDKCGEDYKLHFIFRHKNPKTGIYEEKHAKRPDADLKTYFTDKKTHLYTLILNPDNSFEILVDQSVVNSGNLLNDMTPPVNPSREIEDPEDRKPEDWDERPKIPDPEAVKPDDWDEDAPAKIPDEEATKPEGWLDDEPEYVPDPDAEKPEDWDEDMDGEWEAPQIANPRCESAPGCGVWQRPVIDNPNYKGKWKPPMIDNPSYQGIWKPRKIPNPDFFEDLEPFRMTPFSAIGLELWSMTSDIFFDNFIICADRRIVDDWANDGWGLKKAADGAAEPGVVGQMIEAAEERPWLWVVYILTVALPVFLVILFCCSGKKQTSGMEYKKTDAPQPDVKEEEEEKEEEKDKGDEEEEGEEKLEEKQKSDAEEDGGTVSQEEEDRKPKAEEDEILNRSPRNRKPRRE
binds: all assays above
